# Results reported in paper PMC4336329 (PLoS ONE, 2015).
# Hit rate of the full screen: of about 310,000 compounds, about 14,000 (4.5%) showed an effect of 50% or more. Effects have a minus sign here. This is one part of the list.
# Target: human ether-à-go-go-related gene (hERG) potassium channel (human, UniProt Q12809)
# Assay: primary screen, population patch clamp on CHO cells stably expressing hERG
# 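Also: peak tail current of the secondary pulse compared with the same well before compound.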
# human ether-à-go-go-related gene (hERG) potassium channel, sequence (Q12809 whole entry, looked up): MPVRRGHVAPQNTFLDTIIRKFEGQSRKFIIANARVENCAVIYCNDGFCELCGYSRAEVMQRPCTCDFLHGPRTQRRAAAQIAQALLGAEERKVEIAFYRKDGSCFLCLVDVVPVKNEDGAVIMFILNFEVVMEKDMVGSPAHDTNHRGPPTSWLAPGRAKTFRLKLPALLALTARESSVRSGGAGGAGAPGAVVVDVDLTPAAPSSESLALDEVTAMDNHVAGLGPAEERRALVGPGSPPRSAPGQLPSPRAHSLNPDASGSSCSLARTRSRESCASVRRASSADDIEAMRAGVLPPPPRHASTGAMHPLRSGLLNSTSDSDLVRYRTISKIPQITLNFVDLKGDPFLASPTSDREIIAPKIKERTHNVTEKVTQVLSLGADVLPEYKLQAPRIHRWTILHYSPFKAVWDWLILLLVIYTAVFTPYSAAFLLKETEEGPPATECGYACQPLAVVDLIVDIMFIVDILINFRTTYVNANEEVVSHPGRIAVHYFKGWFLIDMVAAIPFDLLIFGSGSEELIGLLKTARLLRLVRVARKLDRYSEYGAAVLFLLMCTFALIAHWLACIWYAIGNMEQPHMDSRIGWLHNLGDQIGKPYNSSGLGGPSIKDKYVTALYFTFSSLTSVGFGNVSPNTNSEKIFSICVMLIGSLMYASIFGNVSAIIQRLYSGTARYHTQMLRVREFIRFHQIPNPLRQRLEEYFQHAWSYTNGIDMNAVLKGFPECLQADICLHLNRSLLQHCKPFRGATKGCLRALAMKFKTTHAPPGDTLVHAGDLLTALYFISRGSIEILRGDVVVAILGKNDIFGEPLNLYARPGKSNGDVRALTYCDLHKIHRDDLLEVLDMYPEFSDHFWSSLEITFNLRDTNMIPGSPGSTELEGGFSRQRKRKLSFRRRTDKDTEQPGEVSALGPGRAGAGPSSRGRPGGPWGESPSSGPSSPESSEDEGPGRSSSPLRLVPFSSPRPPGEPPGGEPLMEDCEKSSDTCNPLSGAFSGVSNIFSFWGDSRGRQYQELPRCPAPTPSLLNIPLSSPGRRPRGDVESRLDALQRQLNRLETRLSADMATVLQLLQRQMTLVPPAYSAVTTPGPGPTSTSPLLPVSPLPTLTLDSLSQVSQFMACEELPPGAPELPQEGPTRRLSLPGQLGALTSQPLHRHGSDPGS
row,Structure (SMILES),"hERG current change (%, negative = inhibition) at 10uM"
1,O=C(Nc1ccc(N2CCOCC2)c(Cl)c1)c1cccc(F)c1,-21.2%
2,CCOc1cc(C(=O)OCC(=O)N(C)c2ccccc2)cc(OCC)c1OCC,-17.6%
3,Cc1c(NC(=O)CSc2nc(N)cc(N)n2)c(=O)n(-c2ccccc2)n1C,19.1%
4,O=C1NC(=O)C(=Cc2ccc3ccccc3c2)C(=O)N1,11.5%
5,Cc1ccc(NC(=O)CSc2nc3ccccc3nc2N2CCOCC2)cc1,-24.5%
6,Cc1c(NC(=O)C(C)OC(=O)C(NC(=O)c2ccco2)C(C)C)c(=O)n(-c2ccccc2)n1C (stereo not drawn),-10.3%
7,CC(C)(C)NC(=O)CCc1ncc(C(F)(F)F)cc1Cl,5.77%
8,Cc1ccc(C(CNC(=O)c2ccco2)N2CCN(C)CC2)cc1 (stereo not drawn),-11.1%
9,COc1ccc2nc(SCC(=O)NC3CCCCC3)[nH]c2c1,1.06%
10,COc1ccc(CCNC(=O)Cn2cnc3c2c(=O)n(C)c(=O)n3C)cc1OC,7.63%
11,CC1CCN(C(C(=O)Nc2ccc3c(c2)OCO3)c2ccccc2)CC1 (stereo not drawn),-21.4%
12,COc1ccc(-n2c(=O)[nH]c3ccccc3c2=O)cc1,11.9%
13,O=[N+]([O-])c1ccc(CP(=O)(c2ccccc2)c2ccccc2)cc1,-2.54%
14,COc1cc(OC)c(C(=O)OCCCOC(=O)c2cc(OC)c(OC)cc2OC)cc1OC,-0.942%
15,CCN(CC)CCCNC(=O)C1CCC(=O)N(c2ccc(OC)cc2)C1c1ccc(F)cc1 (stereo not drawn),1.14%
16,O=C(CSC1CC(=O)N(c2ccc(C(=O)O)cc2)C1=O)Nc1ccc(Cl)cc1 (stereo not drawn),6.13%
17,COc1ccc(OC)c(-c2cc(C(=O)Nc3cccc(Cl)c3)no2)c1,3.77%
18,O=C(CCc1c[nH]c2ccccc12)N1CCN(c2ccc(O)cc2)CC1,-11.3%
19,COc1cc([N+](=O)[O-])cc(/C=N/NC(=O)c2cccnc2)c1O,2.46%
20,CC(C)(C)OC(=O)N1CCCC(C(=O)CC#N)C1 (stereo not drawn),0.525%
21,COc1cc(C(=O)Nc2ccc(S(=O)(=O)N(C)c3ccccc3)cc2)cc(OC)c1OC,-3.53%
22,CCCCNC(=O)CSc1nc2n[nH]c(C)c2c(=N)n1-c1cccc(Cl)c1C,-1.7%
23,Cc1nn(C)c(C)c1/C=C(\C#N)C(N)=O,12.3%

row,Structure (SMILES),"hERG current change (%, negative = inhibition) at 10uM"
1,CCN(CC)S(=O)(=O)c1cc(C(=O)Nc2cccnc2)ccc1Cl,-67.9%
2,CN(c1ccc(C(=O)N2CCCCC2)cc1)S(=O)(=O)c1ccccc1,-10.8%
3,CC(C)(C)c1cc(NC(=O)CSc2nnc(N)s2)n(-c2ccccc2)n1,-29.1%
4,CSCCC(NC(=O)c1ccco1)C(=O)Nc1ccc(C)c(S(=O)(=O)N2CCOCC2)c1 (stereo not drawn),-4.74%
5,NC(=O)c1ccsc1NC(=O)CSc1nc2ccccc2c(=O)n1CCCO,-9.94%
6,CC(C)OC(=O)Cn1nnc2c(cnn2-c2ccccc2)c1=O,-11.1%
7,CC(Oc1ccc(F)cc1)C(=O)Nc1cc(S(=O)(=O)N2CCCCC2)ccc1N1CCOCC1 (stereo not drawn),-5.21%
8,CC(C)C(OC(=O)c1cccs1)C(=O)NCc1ccc(F)cc1 (stereo not drawn),4.04%
9,Cc1cccc(Nc2nnc(SCC(=O)Nc3ccccc3[N+](=O)[O-])s2)c1,10.5%
10,Cc1ccc(C(=O)O)cc1[N+](=O)[O-],16.1%
11,Cc1ccc(S(=O)(=O)n2nc(-c3ccc(Cl)cc3)nc2NCc2ccco2)cc1,-4.03%
12,O=[N+]([O-])c1ccccc1S(=O)(=O)NCCc1ccncc1,14.9%
13,O=[N+]([O-])c1ccc(Nc2ccc(Cl)cc2)nc1,21.7%
14,CCn1cc(CN2CCCC(C(=O)Nc3cccc(-c4cc5ccccc5[nH]4)c3)C2)cn1 (stereo not drawn),-6.49%
15,COc1ccc(N2CCN(C(=O)c3cccnc3SCc3cccc(Br)c3)CC2)cc1,0.381%
16,CCCCOC(=O)CSC(=S)N(C)Cc1cccs1,-7.39%
17,Nc1cc(S(=O)(=O)N2CCCCC2)ccc1N1CCOCC1,4.5%
18,COc1ccc(-c2csc(NC(=O)CSc3ccc(Br)cc3)n2)c(OC)c1,17.4%
19,O=c1cc(CSc2ccccn2)nc(N2CCN(c3ccccc3)CC2)[nH]1,-17%
20,O=C(COC(=O)CNC(=O)c1ccccc1F)Nc1ccc2[nH]c(=O)[nH]c2c1,10.2%
21,CCc1c(C(=O)NN2C(=O)C3C4CCC(O4)C3C2=O)csc1C (stereo not drawn),13.3%
22,O=C(O)c1ccc(Nc2nc(-c3cccnc3)cs2)cc1O,9.69%
23,COc1ccccc1-[n+]1c(C)cc(/C=C2\Sc3ccccc3N2C)cc1C.[I-],-69.6%

row,Structure (SMILES),"hERG current change (%, negative = inhibition) at 10uM"
1,Cc1cc2nc(NCCCO)n(CC(=O)c3cc(C(C)(C)C)c(O)c(C(C)(C)C)c3)c2cc1C,7.23%
2,COc1ccc(CC(=O)OCC(=O)N2CCN(S(=O)(=O)c3ccc(C)cc3C)CC2)cc1,-10.8%
3,CCn1c(Cc2ccc(OC)cc2)nnc1SCc1nc2ccccc2c(=O)[nH]1,-0.172%
4,CCCOc1ccccc1C1CC(=O)Nc2cc3c(cc21)OCCO3 (stereo not drawn),3.65%
5,CCN(C(C)=O)c1cccc2ccccc12,6.52%
6,CCCCC(CCC(=O)O)(C(=O)OCC)c1csc(Nc2ccc(C)cc2)n1 (stereo not drawn),-0.891%
7,COc1nc(-c2ccccc2)c2c(c1C#N)CC(C)(C)OC2,-11.2%
8,CCOC(=O)C1CCN(c2ccc([N+](=O)[O-])c(C(C)=O)c2)CC1,-11.8%
9,COc1cc(CNc2ccc3[nH]c(=O)[nH]c3c2)ccc1OCc1ccccc1C,13.5%
10,O=C(CN1CCN(Cc2ccccc2)CC1)NCc1ccc(Cl)cc1,-61.1%
11,Cc1cccc(OCCCC(=O)NCc2ccco2)c1,2.27%
12,CC(C)CC(OC(=O)c1cccs1)C(=O)NCc1ccco1 (stereo not drawn),14.5%
13,COc1ccc(C2C(=O)N(C3CCCCCC3)CC(=O)N2Cc2ccccc2)cc1OC (stereo not drawn),-32.3%
14,COc1ccc2nc(NC(=O)c3cccc(N4C(=O)CCC4=O)c3)sc2c1,-3.19%
15,CC(C)(C)Cc1nnc(NC(=O)Cc2ccc([N+](=O)[O-])cc2)s1,-7.2%
16,CC1=C(C(=O)OC(C)C)C(C)C(C(=O)OC(C)C)=C(C)N1,-16.9%
17,COc1ccc(C2CCCN2C(=S)Nc2cccc(Cl)c2)cc1OC (stereo not drawn),-23.2%
18,O=C(CSc1nc(O)cc(=O)n1-c1ccccc1)Nc1ccc(Br)cn1,-2.56%
19,CC(C)CN1C(Nc2ccccc2)=NC[C@@H]1C,13.3%
20,Cc1nc2nc(C)c(CCC(=O)NC3CCCCC3)c(C)n2n1,14.7%
21,CN1COc2ccc3ccccc3c2C1,5.28%
22,CN(C)CCC(=O)c1cccc(Br)c1.Cl,14.8%
23,CCOC(=O)c1csc(NC(=O)C(C)(C)C)n1,-4.47%

row,Structure (SMILES),"hERG current change (%, negative = inhibition) at 10uM"
1,CC1Cc2ccccc2N1S(=O)(=O)c1c(N)n(C)c(=O)n(C)c1=O (stereo not drawn),7.93%
2,C=CCOC(=O)C1=C(C)Nc2nnnn2C1c1cc(OC)ccc1OC (stereo not drawn),-5.77%
3,Nc1c2c(nc3ccn(-c4ccccc4)c(=O)c13)CCCCC2,-58.8%
4,Cc1ccc(-c2cc(C(=O)NCc3cccnc3)no2)cc1,3.78%
5,CN1CC(=O)Nc2ccccc2C1=O,26.3%
6,COc1ccc(CCNC(=O)CCOc2cc(C)ccc2C)cc1OC,-1.05%
7,COc1ccc(CN2CCNCC2)cc1.Cl,21.6%
8,CC(=O)/C=C/c1ccc(C)o1,19.6%
9,O=C(CSc1nc(-c2ccccc2)nc2ccc(F)cc12)Nc1cccc(C(=O)O)c1,2.54%
10,O=C(NCc1ccccc1)N1CCOc2ccccc21,16.9%
11,O=C1CC(C(=O)Nc2ccc(Cl)cc2)S/C(=N\N=C\c2ccco2)N1 (stereo not drawn),10.4%
12,CCOC(=O)C1C2C=CC3(CN(C4CCCC4)C(=O)C13)O2 (stereo not drawn),17.3%
13,CCN(CC)c1ccc(S(=O)(=O)N2CCOCC2)cc1NC(=O)c1cc(=O)c2ccccc2o1,-2.32%
14,CN1C(c2ccccc2)CCOS1(=O)=O (stereo not drawn),7.49%
15,CCOc1ccc(N2CC(C(=O)NCCN3C(=O)S/C(=C\c4ccc(OC)c(OC)c4)C3=O)CC2=O)cc1 (stereo not drawn),-21.3%
16,Cc1c(Cl)cccc1NC(=O)CN1CCC(NC(=O)C2CCCCC2)CC1,-0.0286%
17,O=S(=O)(c1ccc(Oc2ncnc3scc(-c4ccccc4)c23)cc1)N1CCOCC1,-0.503%
18,CSc1nc2ccc(Cl)cc2[nH]1,-1.63%
19,Cc1cc(NC(=O)CCC(=O)N(CC(=O)NC2CCCC2)c2ccc(F)c(Cl)c2)no1,-10.6%
20,Cc1ccc(NC(=O)C2CCCN2C(=O)Oc2ccccc2)cc1 (stereo not drawn),-5.96%
21,CC(=O)c1ccc(NC(=O)c2ccc3snnc3c2)cc1,0.0655%
